# In the supplement of paper PMC3334620:
# Over roughly 33,000 sequences, “E-score (-0.5 to 0.5)” has its median near -0.054; the highest 2% begin near 0.35. This is one part of the list.
# Molecular target: T1, Stb5 (UniProt P38699)
# T1 sequence: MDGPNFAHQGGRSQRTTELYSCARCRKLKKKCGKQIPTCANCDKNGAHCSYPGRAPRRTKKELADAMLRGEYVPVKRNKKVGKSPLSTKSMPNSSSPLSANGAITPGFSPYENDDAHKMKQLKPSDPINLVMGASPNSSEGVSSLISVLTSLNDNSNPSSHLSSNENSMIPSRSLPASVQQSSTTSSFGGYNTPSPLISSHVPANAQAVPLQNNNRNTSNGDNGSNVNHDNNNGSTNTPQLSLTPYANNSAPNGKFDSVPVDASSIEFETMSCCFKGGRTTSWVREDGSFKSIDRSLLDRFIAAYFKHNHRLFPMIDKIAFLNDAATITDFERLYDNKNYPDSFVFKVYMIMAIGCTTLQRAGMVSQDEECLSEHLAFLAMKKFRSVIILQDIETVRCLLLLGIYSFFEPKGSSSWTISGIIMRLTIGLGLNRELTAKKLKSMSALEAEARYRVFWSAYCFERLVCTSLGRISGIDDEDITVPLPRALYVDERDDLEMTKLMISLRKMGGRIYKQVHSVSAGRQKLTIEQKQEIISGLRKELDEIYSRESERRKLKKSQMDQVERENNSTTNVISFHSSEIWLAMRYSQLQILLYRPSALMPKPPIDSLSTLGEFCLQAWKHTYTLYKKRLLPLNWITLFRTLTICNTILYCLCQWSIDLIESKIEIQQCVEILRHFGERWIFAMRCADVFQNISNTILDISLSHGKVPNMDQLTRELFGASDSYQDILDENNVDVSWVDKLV
# Experiment: PBM E-score (8-mer binding enrichment) (E-score (-0.5 to 0.5)); higher = stronger / more preferred TF binding; most listed sequences are background and not binding sites
# Settings: protein concentration: 200 nM; construct: GST-full length
# Method: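 Universal 'all 10-mer' protein binding microarrays (Agilent AMADID 015681) probed with GST-tagged S. cerevisiae TFs (full-length or DBD) made by in vitro transcription/translation (PURExpress), about 100-200 nM. Bound TF was detected with fluorescent anti-GST. Each ungapped 8-mer (which stands for itself and its reverse complement) is scored by the PBM enrichment score (E-score), a modified Wilcoxon-Mann-Whitney statistic from -0.5 to +0.5, computed with the Universal PBM Analysis Suite. Scale: above 0.35 generally sequence-specific binding.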
row,Sequence,PBM E-score
1,GCAGATGC,-0.149
2,GGCCACAC,0.0949
3,TCGTTGCA,-0.243
4,TAACAAAA,0.0358
5,CACAGGCG,0.131
6,AAGCCAAT,0.0459
7,ACATTGTA,-0.238
8,GCTCGCCA,0.00411
9,CATTTCAG,-0.195
10,GCCGCAGA,0.201
11,ACTGGTAA,0.0787
12,GCTCCCAA,-0.287
13,AGCAGTTG,-0.181
14,AAACGTGA,-0.285
15,AACACACG,-0.167
16,CATACACC,0.204
17,AGGCTGCC,-0.211
18,TATGTTCA,-0.108
19,AACGTTGA,-0.0296
20,TGCACCAA,-0.409
21,CAAGGGTA,-0.229
22,CGATTGTA,0.162
23,ATTGCCTC,-0.196
24,CGGGCGTC,0.198
25,CTCGATTA,-0.0987

row,Sequence,PBM E-score
1,GAAAACTA,-0.0062
2,ATATGGCC,0.222
3,AGCTAAAT,0.088
4,CGGAGAGC,0.00854
5,GGAAACAC,0.17
6,ACGTGGCT,-0.152
7,AGAGTTGC,0.0441
8,GCAAGGCA,-0.187
9,GAAATGCC,0.294
10,AGAAAGAC,-0.0525
11,CAGAACAG,-0.0857
12,GATTTCGA,-0.0771
13,AGCGGTGA,0.387
14,AGTAATAA,-0.124
15,ACTAAGAG,0.102
16,AGGCCGTA,0.223
17,CGCATGCA,0.15
18,TCCCTGCA,-0.0166
19,GACGTGCC,0.00712
20,GTTGAGAA,0.0595
21,ATTAACGG,0.217
22,ATGGCCTA,0.0294
23,AGGGGGTC,-0.342
24,GACCAATC,-0.122
25,ACTGCTCT,-0.0796

row,Sequence,PBM E-score
1,GTACTGCA,-0.181
2,GTGTCAGA,-0.0796
3,CCCGGGAG,0.109
4,AATAGTGC,0.217
5,CAGTACAC,-0.242
6,CATAAGTC,0.125
7,CTACATCC,-0.0483
8,CCCCAACC,-0.16
9,GGACGTCC,-0.00798
10,ATGCGACG,0.0491
11,AGTCATTC,-0.303
12,AGGAACAC,0.13
13,CTTACGAA,-0.17
14,GAGGGCAA,-0.148
15,TACTGGCA,-0.17
16,AACCTACA,-0.0764
17,CACCTAGA,-0.0146
18,TACTCGGA,0.114
19,AAGAGGAT,-0.147
20,ACAAGATC,-0.0806
21,CTATGCAG,-0.237
22,AAAATTGT,-0.203
23,GTATGTCA,-0.0197
24,GAGCAGCC,-0.259
25,AGCCGTAA,0.115

row,Sequence,PBM E-score
1,CCTGCTAA,-0.18
2,GCGCACCA,-0.00566
3,TCTAAACA,-0.0965
4,ATTCATCA,-0.0353
5,ACAGCCAG,-0.16
6,ACTCTTCC,-0.151
7,CGATGGAA,-0.0192
8,AACACTGG,-0.224
9,ACGCGGCC,0.105
10,CGGAAGGC,0.12
11,ATAAGAGC,0.128
12,GAAGACCA,-0.0322
13,GAGTAGAA,-0.161
14,AGGTAGTA,0.0131
15,ACGCAGCG,-0.0092
16,CAGCCCGA,0.124
17,GACGTTTA,-0.0411
18,CTGTCTAC,-0.162
19,GAAAAATC,-0.215
20,AGGATGTA,-0.0625
21,ACTGGCCG,-0.0443
22,CGTAGAAC,-0.0286
23,ATAGAAGC,-0.0497
24,ACAATCTC,0.0173
25,AACTCACC,-0.00352

row,Sequence,PBM E-score
1,TAAGCAAA,-0.135
2,CAGTACCG,0.303
3,GTTTGAGA,-0.24
4,GCAACGGA,0.308
5,CGCGATGC,0.0703
6,CATATCGG,0.132
7,AGGGTCCG,0.256
8,ACAGGTGA,-0.127
9,AGTTCCCA,-0.121
10,CTTCTCCA,-0.187
11,CAAATATA,-0.0723
12,CAGGACGC,-0.172
13,TGTGTCAA,-0.174
14,CAGGGGGC,-0.144
15,AGCGGTAG,0.204
16,GCCCGCGA,0.153
17,AAAATCGG,0.265
18,ACCTGTAT,-0.153
19,GTCCTGGA,-0.2
20,CCGCGTTC,0.193
21,GACGATGA,0.139
22,GCACCGAA,0.358
23,AATTCGAG,-0.148
24,AGAAAAAA,-0.113
25,ATCCTTGG,0.0702

row,Sequence,PBM E-score
1,CCATTTAA,-0.073
2,CACTCAGC,-0.0979
3,AACTCGTC,-0.204
4,ACTTCTCG,-0.0927
5,AAGACTGT,-0.313
6,AAGTTGAG,-0.133
7,GGATTCGA,-0.0242
8,CAGGTCGA,-0.262
9,ACGAAACC,0.133
10,GTAAGACA,-0.126
11,TATTTAAA,0.116
12,AGTTCCAA,-0.0608
13,AATTGCAC,-0.0778
14,CGTACTGC,-0.141
15,GGTATTAC,0.386
16,GGGACCGA,0.257
17,AAACAAGG,-0.0496
18,AATACCCA,-0.00126
19,ATCCATTC,-0.118
20,AAAGCGAA,-0.0323
21,CATTGGGG,-0.203
22,CAGGGTTC,-0.205
23,AGTCTAGG,-0.127
24,AGGGGCAA,-0.088
25,AAGTGATG,-0.238

row,Sequence,PBM E-score
1,AGTGTTGA,-0.0698
2,AGAGGAAG,-0.285
3,GGGCGCGA,-0.0309
4,CTCCAAGC,-0.182
5,CATACATG,-0.0783
6,ATGTTACG,-0.0742
7,ACTCGCAA,-0.195
8,CAGCCTCC,-0.119
9,CCCGCGGC,0.333
10,AAATCACG,-0.0679
11,CCCTCAGC,-0.183
12,AGCCCCGG,0.404
13,GGCCTCAA,0.0612
14,CGTGAGAC,0.0335
15,GATCAACA,-0.214
16,AAACCTGG,-0.212
17,CACGAGCA,-0.277
18,ATCCGCGC,0.248
19,TCCGCAGA,0.166
20,AATCTCGG,0.058
21,AGTACCCA,-0.101
22,TCCTTAAA,-0.274
23,CTGCTCCC,-0.16
24,ATAAAGTA,-0.0902
25,AAAAGCTA,-0.167

row,Sequence,PBM E-score
1,CACCCTCA,-0.305
2,ACGCCCGG,0.267
3,GGGTTTTA,0.322
4,AAGTCTTG,-0.201
5,CGGGGCTA,0.454
6,CTTTACTC,-0.0779
7,GATGCTGA,-0.156
8,GACGCTAC,-0.0535
9,ACGGAAAG,0.0988
10,ACTAACCT,0.0923
11,CTATACCC,0.229
12,CTTACCAA,-0.0606
13,TGTCACAA,-0.14
14,CCAACACG,-0.16
15,GCCTGTCC,-0.216
16,CGGACGAG,-0.0529
17,GTACCGCA,0.298
18,AATGAATA,0.0406
19,CGCACAAC,0.014
20,TCTTCACA,-0.0418
21,ATCTCCGA,0.394
22,CACCTAGC,-0.0338
23,GTGATATA,0.124
24,ACTGAGTC,0.0194
25,ATGAAGCC,0.187

row,Sequence,PBM E-score
1,AGGAATTG,-0.166
2,GGCCGCGA,0.0902
3,ATCCCGGG,0.299
4,CCGAGTAG,0.105
5,CAGCTGAA,-0.317
6,CAGATGAC,-0.077
7,ACAACAGT,-0.181
8,AACGGCAT,0.326
9,ACTCAAAC,0.0633
10,CTCAGCGC,0.0753
11,GACTTACC,0.208
12,AACAATTG,-0.274
13,GGGGGGTA,0.0523
14,GGCCCCCA,-0.198
15,ACGACCCC,-0.0617
16,CTACTAGC,0.0168
17,ATTTTGTC,-0.00468
18,GGCGAGAC,-0.151
19,CAGTCGAA,-0.0905
